The values that follow come from the supplement of paper PMC3334620.

Over roughly 33,000 sequences, “E-score (-0.5 to 0.5)” has its median near -0.021; the highest 2% begin near 0.32. The list shows a part of the results.

The assay concerns the target T1, Zap1 (UniProt P47043).
T1 sequence: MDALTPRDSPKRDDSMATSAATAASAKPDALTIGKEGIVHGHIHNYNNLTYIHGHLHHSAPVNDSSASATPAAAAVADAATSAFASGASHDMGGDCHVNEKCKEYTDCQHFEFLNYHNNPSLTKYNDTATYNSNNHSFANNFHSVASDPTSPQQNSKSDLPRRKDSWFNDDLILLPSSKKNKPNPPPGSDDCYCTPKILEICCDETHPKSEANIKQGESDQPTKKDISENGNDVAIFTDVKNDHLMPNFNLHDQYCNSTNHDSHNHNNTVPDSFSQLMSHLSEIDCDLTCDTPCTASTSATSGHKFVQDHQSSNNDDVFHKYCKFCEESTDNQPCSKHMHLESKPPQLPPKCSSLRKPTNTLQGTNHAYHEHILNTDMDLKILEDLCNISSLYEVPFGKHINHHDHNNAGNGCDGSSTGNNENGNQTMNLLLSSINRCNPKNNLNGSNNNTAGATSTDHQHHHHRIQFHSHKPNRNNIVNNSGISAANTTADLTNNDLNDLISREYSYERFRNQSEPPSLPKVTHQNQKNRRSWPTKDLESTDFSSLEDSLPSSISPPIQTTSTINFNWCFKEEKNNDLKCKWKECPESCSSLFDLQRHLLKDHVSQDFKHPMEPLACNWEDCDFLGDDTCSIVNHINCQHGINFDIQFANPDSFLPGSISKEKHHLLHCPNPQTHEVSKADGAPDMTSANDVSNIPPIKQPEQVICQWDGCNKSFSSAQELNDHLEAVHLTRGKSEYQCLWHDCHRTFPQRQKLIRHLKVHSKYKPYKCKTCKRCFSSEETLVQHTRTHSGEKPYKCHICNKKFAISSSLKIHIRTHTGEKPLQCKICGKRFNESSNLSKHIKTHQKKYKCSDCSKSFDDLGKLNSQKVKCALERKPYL
The experiment in a line: PBM E-score (8-mer binding enrichment) (E-score (-0.5 to 0.5)); higher = stronger / more preferred TF binding; most listed sequences are background and not binding sites. The note with it: protein concentration: 200 nM; construct: GST-full length. In outline: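 Masliner-normalised scans of fluorescent anti-GST signal were the basis for scoring. That signal came from GST-tagged yeast transcription factors applied at about 100-200 nM to double-stranded universal all-10-mer Agilent arrays on fresh or once-stripped slides. Each ungapped eight-base word, pooled with its reverse complement, received an E-score from the Universal PBM Analysis Suite.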
As for ACGCGTAT, the “PBM E-score” value was -0.0739.

Take GTTGTCTA: the “PBM E-score” value is -0.00927.

Turning to ATCGACAG, the “PBM E-score” value was -0.0839.

For CACACAGA, the “PBM E-score” value is 0.0893.

Take AGCTGGTC: the “PBM E-score” value was -0.0085.

Turning to AACCTATA, the “PBM E-score” value stood at 0.374.

As to CGTCTAAG, the “PBM E-score” value is -0.0894.

As to ACTGTCCA, the “PBM E-score” value was -0.169.

Consider CCAAGACG, for which the “PBM E-score” value was -0.202.

For the sequence CTTGTCGA, the “PBM E-score” value was -0.019.

For the sequence CAATCTGA, the “PBM E-score” value was -0.0798.

On to CTTTGTCC, for which the “PBM E-score” value amounted to 0.0267.

With CAGCTCAC, the “PBM E-score” value is -0.203.

ACCAACAG: the “PBM E-score” value is 0.0987.

In the case of ACCCCGCC, the “PBM E-score” value came out at 0.281.

For CCCGCCCA, the “PBM E-score” value worked out at 0.0532.

Turning to AACCTGGT, the “PBM E-score” value was determined as 0.306.

Consider ACTAGCCT, for which the “PBM E-score” value was -0.103.

As to ACACCCCT, the “PBM E-score” value was determined as 0.218.

For ACCAGGAA, the “PBM E-score” value worked out at 0.0661.

Turning to AGTGGCGC, the “PBM E-score” value was -0.213.

As for GCGTACCA, the “PBM E-score” value came to 0.0288.

Turning to GGCAGACC, the “PBM E-score” value is -0.192.

AGGGTGTG: the “PBM E-score” value is 0.264.

Consider GAGTCGGC, for which the “PBM E-score” value was -0.329.

Take CGTCAGAA: the “PBM E-score” value was -0.212.

As to CTCTTTCA, the “PBM E-score” value was -0.0651.

Take ACCTTCGT: the “PBM E-score” value was 0.156.

In the case of CCGATCGG, the “PBM E-score” value stood at 0.13.

Take AAATGCTT: the “PBM E-score” value was -0.0853.

Turning to AATCCGCC, the “PBM E-score” value is -0.349.

Take CTCCATGC: the “PBM E-score” value is -0.229.

Turning to CCCCTTCA, the “PBM E-score” value was -0.105.

Regarding ACGTTAGT, the “PBM E-score” value was -0.0118.

As for ATCCAGAT, the “PBM E-score” value was -0.0341.

ACGGATGA: the “PBM E-score” value is -0.156.

For the sequence TCAGCACA, the “PBM E-score” value was -0.0282.

For GTTCGGAA, the “PBM E-score” value was 0.12.

GGCTAGGA: the “PBM E-score” value was -0.233.

As for CAGATCCG, the “PBM E-score” value is -0.116.

For the sequence AAATAGCC, the “PBM E-score” value is -0.0388.

For CACAACTG, the “PBM E-score” value is -0.0405.

Take CTTGGAAC: the “PBM E-score” value is 0.0519.

GGCAGCAC: the “PBM E-score” value is -0.298.

On to GGTCCGGA, for which the “PBM E-score” value came out at 0.0312.

Regarding CGATGTTC, the “PBM E-score” value was -0.08.

For TAATAATA, the “PBM E-score” value came to 0.217.

Regarding CTATACAA, the “PBM E-score” value was -0.0225.

As for ATTGGTGC, the “PBM E-score” value is -0.0663.

As for GCGGCGCA, the “PBM E-score” value was -0.226.

As to GAACAAGA, the “PBM E-score” value stood at 0.00965.

In the case of GTTCTGAA, the “PBM E-score” value is 0.236.

In the case of CGGAGCGC, the “PBM E-score” value was -0.253.

For the sequence TAGGCTCA, the “PBM E-score” value was -0.16.

Turning to CAGCACCA, the “PBM E-score” value was -0.188.

In the case of CGGGCGTA, the “PBM E-score” value is -0.302.

Regarding CGGTCTAA, the “PBM E-score” value was determined as 0.0414.

Consider ACTAAGTG, for which the “PBM E-score” value was -0.0598.

As for TCTTGACA, the “PBM E-score” value was 0.0781.

As for GAGGAGCA, the “PBM E-score” value was -0.223.

As to ATCGTTTC, the “PBM E-score” value is -0.0438.

For the sequence GCAAAGCC, the “PBM E-score” value was -0.306.

With AAAACTAG, the “PBM E-score” value was 0.00896.

As for CCAGAACA, the “PBM E-score” value was -0.00016.

In the case of CACGGTAC, the “PBM E-score” value stood at 0.246.

CATTATCC: the “PBM E-score” value came to 0.0892.

Consider AAAGATGG, for which the “PBM E-score” value is -0.154.

Regarding GCGTTCTA, the “PBM E-score” value was -0.113.

On to GAGCATGA, for which the “PBM E-score” value was -0.176.

For GAAGTATA, the “PBM E-score” value was -0.00274.

CCTGCACC: the “PBM E-score” value is -0.337.

In the case of GACCATGA, the “PBM E-score” value turned out to be 0.252.

Regarding ACCAGACA, the “PBM E-score” value came to 0.023.

Take CTAGTCGA: the “PBM E-score” value was -0.13.

Take TGAATCCA: the “PBM E-score” value was 0.0119.

As to CTGAACCA, the “PBM E-score” value is -0.126.

AACGACAT: the “PBM E-score” value stood at 0.00264.

On to AAAAAGTC, for which the “PBM E-score” value turned out to be 0.0716.

For CAACGAGC, the “PBM E-score” value was -0.156.

Consider AATCGTGC, for which the “PBM E-score” value amounted to 0.0547.

With GTCCAAAA, the “PBM E-score” value stood at 0.0828.

As to CTTTCAGA, the “PBM E-score” value stood at 0.125.

On to AAGGCTGC, for which the “PBM E-score” value was 0.0851.

Regarding TGCAGACA, the “PBM E-score” value was -0.0367.

With ACTTACCT, the “PBM E-score” value came to 0.0127.

As to CGCCAATA, the “PBM E-score” value stood at 0.104.

Turning to CGACGGCG, the “PBM E-score” value is -0.272.

Take AATGCCTA: the “PBM E-score” value is -0.214.

GAAGTAAA: the “PBM E-score” value is 0.0987.

Regarding CTAGGCGC, the “PBM E-score” value was -0.261.

TCATGGGA: the “PBM E-score” value worked out at 0.0596.

Turning to AGTGAGAC, the “PBM E-score” value was -0.16.

CGAGTCAG: the “PBM E-score” value was -0.103.

Turning to CTATACCA, the “PBM E-score” value is 0.0451.
